This is one part of the list.

The chains are these.
B1: chr18:3457781:3457936:+|CDS|ENSG00000177426|unk|total|mutant (ssRNA)
RNA: GGGAGUUCUACAGUCCGACGAUCCAACACUCCUCCCCCUACUCCACCGGACCUCAACCAGGACUUCAGUGGAUUUCAGCUUCCCGUGGAUGUUGCACUCAAACGGGCUGCAGAGAUGGAGCUUCAGGCAAAACUUACAGCUUACAACAGAGGAUUGAGCAUCA
B2: chr4:102887774:102887875:+|3pUTR|ENSG00000145354|msi1|FALSE|unique (ssRNA)
RNA: GGGAGUUCUACAGUCCGACGAUCUUGGUUUUGAUAAUCUGAAGUGUUUUUUUCUCGUUUUGGCCUUCCAAACUGCAUUUGGUUAGGUGAAUUAAGAAAAAUAUUGCCAUCAAGAAUUACUUGUGUUUUCACAGAGAUAGACUCCAACAGAGGAUUGAGCAUCA
B3: chr14:90848141:90848242:-|3pUTR|ENSG00000100784|unk|FALSE|unique (ssRNA)
RNA: GGGAGUUCUACAGUCCGACGAUCCGAUAACUGGUACUGCCUUUGAUUAAAGGUGAGCUAUAUGGAGUUAAGCAUUUUUAUACUAGUAACUAUUUAUUGAGAAUUUUCAGAAUUCUAUAGCUACUUGUCUUUAACAGUUAUAAGCAACAGAGGAUUGAGCAUCA
B4: chr11:95131931:95132033:+|3pUTR|ENSG00000149218|unk|total|mutant (ssRNA)
RNA: GGGAGUUCUACAGUCCGACGAUCGGACCGGUGGCUGAGACCCACUGCCCUGAGCUACCCGUGUGGCUGUGCCUGUGGGUCUCCCGAACCAUCUGCAUUGGACGUGAAGCCACAGCAGGUGGCUGGACUGCUGGCCUGUUCCUACAACAGAGGAUUGAGCAUCA
B5: chr20:2117184:2117286:+|CDS|ENSG00000125834|unk|FALSE|unique (ssRNA)
RNA: GGGAGUUCUACAGUCCGACGAUCGCUCCUGGGGACCUACAUUAAACAGGGGACUGAGAUCGUCCCUGUUGGUGAGGCGCUGCUAGAAAACCCAAAGAUGGAGUUGCACAUCCCCCAAAAACGCAGGACUUCCAUGUCUGAGGGCAACAGAGGAUUGAGCAUCA
B6: chr16:67638976:67639077:+|3pUTR|ENSG00000102974|unk|total|mutant (ssRNA)
RNA: GGGAGUUCUACAGUCCGACGAUCAAACACUUUUUUCUUCUGUGUAUUGCUUUUAAGAGAGCCAUCAGUCCGCUAUCAGACUCCCGGUUGAUGCAUUUUGUACUCCGCUGUACUGUGUGAUAUUUUUCAUUAUUUCCGGACGCCCAACAGAGGAUUGAGCAUCA
B7: chr1:28742582:28742694:+|CDS|ENSG00000198492|unk|FALSE|bound_elsewhere (ssRNA)
RNA: GGGAGUUCUACAGUCCGACGAUCAGCAACGGAGAGCCCCACUUCCUACCAGAUGCAAUGUUUGGGCAACCAGGAGCCCUAGGUAGCACUCCAUUUCUUGGUCAGCAUGGUUUUAAUUUCUUUCCCAGUGGGAUUGACUUCUCACAACAGAGGAUUGAGCAUCA
B8: chr13:19825080:19825183:-|CDS|ENSG00000132950|unk|FALSE|unique (ssRNA)
RNA: GGGAGUUCUACAGUCCGACGAUCUUUUAGAGAAGAAAAUGAGAAACAAUUAUAUGGAUCGUCAAAUACACUUUUGAAAAAAAUAGAGGGAAUCCCAGAAAAAAAGGAAAAGACUUCACAGCUACAGCUUUCAGUAGAAUGUGGCAACAGAGGAUUGAGCAUCA
B9: chr16:84129640:84129741:-|CDS|ENSG00000103160|unk|FALSE|unique (ssRNA)
RNA: GGGAGUUCUACAGUCCGACGAUCCUUGCAAUAUGAAUAUGCCUCUAAAGGAAUCUUUGUACAGAGUCUAAUCCCUUUCUAUGUAGCCACCAGCAUGACAGCACCCAGCAACUUUCUGCACAGGUGCUCGUGGUUGGUGCCUUCCAACAGAGGAUUGAGCAUCA
B10: chr11:8980169:8983969:-|three_prime_utr|ENSG00000175352|control|control|control (ssRNA)
RNA: GGGAGUUCUACAGUCCGACGAUCAAUUAUACUACAAAUCCACCCUUCCCCACACCCAGAGUUCAUCACCCCACAAAACUCUGUAGUGCACACAUCAGAAUGAGCAAUGGUGAUGCCACACAGAGUGGUAGGGAAAUGACUAGCCAACAGAGGAUUGAGCAUCA
B11: ENSG00000198589:be:win_1701|CDS|ENSG00000198589|bound_else_gene|NA|bound_elsewhere_windowed (ssRNA)
RNA: GGGAGUUCUACAGUCCGACGAUCAUUGUGUGAUCACGUUCUUCUUAAUCCUGCCAUAUGGAUUCAUACCCCAGCCAAGGUUCAACUGAUGCUCUAUACUUAUCUGUCCACGGAAUUCAUUGGUACAGUCAACAUAUAUAACACCAACAGAGGAUUGAGCAUCA
B12: chr6:43570573:43570674:-|CDS|ENSG00000124571|unk|total|mutant (ssRNA)
RNA: GGGAGUUCUACAGUCCGACGAUCGGUGCCGGAAACACAGACAGAAUUGGUGAUGUUUAUCCUUUUGCGACUGGCAGAGGAUGCCGUGACUUUUCAGACACUUCCCCCUCAAAGAAGAAGGGACAUCCAGCAAACAUUAACCCACAACAGAGGAUUGAGCAUCA
B13: chr12:39369705:39369875:-|CDS|ENSG00000139116|unk|total|mutant (ssRNA)
RNA: GGGAGUUCUACAGUCCGACGAUCGGGUAUUAUUUCUCGAGCUGUUAAACACCUUUUUAAGAGUAUUGAAGAAAAAAAACACACCGCAAUUAAAAAUGGGCUUCCUGCUCCAGAUUUUAAAGUGAAUGCCCAAUUCUCCGAGGUCAACAGAGGAUUGAGCAUCA
B14: chr13:30280108:30280219:-|CDS|ENSG00000102781|unk|total|mutant (ssRNA)
RNA: GGGAGUUCUACAGUCCGACGAUCUAAGGUUCGGCAGGAAUUAUUGGAGGAAUAUGAACAAGUUAAAAGUAUUGUCAGCACUUCCGAAAGUUUUAAAAUUGACAAGCCUCCAGAUUUCCCUGUGUCCUGUCAAGAUGAACCAUUCAACAGAGGAUUGAGCAUCA
B15: chr3:149738563:149738664:-|3pUTR|ENSG00000114744|unk|FALSE|unique (ssRNA)
RNA: GGGAGUUCUACAGUCCGACGAUCUGGAUUAUUAUGGGUCCUUGAUAAAUUCUCAAAGCCUUUUUUUUUGUUCAUCUCUAAAAUAGGAAUAUAGGAUUACCUACCACAUUGACUCGUAAGGACUAUAUGAGACCAUGUAUAUAGCAACAGAGGAUUGAGCAUCA
B16: chr17:66805439:66805473:+|3pUTR|ENSG00000154229|msi1_unk|total|mutant (ssRNA)
RNA: GGGAGUUCUACAGUCCGACGAUCCACAAUUGUGCUCUAUUUGUGCAGGUUCUUGUUUCUAAUCCUCUUUUCUAAUUAAGUUUCCGCUGAAUCCCUUGCUUCUGUGCUUUCCCUCCCUGCACAUGGGCACUGUAUCAGACCGAUCAACAGAGGAUUGAGCAUCA
B17: ENSG00000127914:stop:overlap|stop_codon|ENSG00000127914|stop_codon|NA|stop_codon (ssRNA)
RNA: GGGAGUUCUACAGUCCGACGAUCGGCAGCACCACAGUGCGAGACCCACAGCUCCCCUUUCUUUGAAAUUCUUUCACACUCAUUAGGAUAAUCAAAGCUUCCAGUUUAGUGCAUGAGCUAAUUAUUAAGUUAGCCAAAGCUUAACAACAGAGGAUUGAGCAUCA
B18: chr16:30026608:30026843:-|CDS|ENSG00000149926|control|control|control (ssRNA)
RNA: GGGAGUUCUACAGUCCGACGAUCGGUCAAAGGGCAUGGAGGGGACGACGGAGCGGCCAGAGCCCCGGGCAGCACGUGGGCCAUAGCGCGUGGCUACCUGCACAAGGAGUUCCUCAUGGUGCUCCACCAUGCCGCCAUGGUGCUCAACAGAGGAUUGAGCAUCA
B19: chr1:27823432:27823533:+|3pUTR|ENSG00000117758|unk|total|mutant (ssRNA)
RNA: GGGAGUUCUACAGUCCGACGAUCUUUCAAUAAAAUUACUGUCUUGUAAUAUAAAUGUUGUCCACUUCCCUUUUCCACAGGCCCCGAACAGUUAAAGGGAACAUAAUUUGUUCCGGCUCCCACAUAAAUGUGAAUCUGGCCAACCAACAGAGGAUUGAGCAUCA
B20: chr7:56101660:56101848:-|3pUTR|ENSG00000106153|msi1|FALSE|unique (ssRNA)
RNA: GGGAGUUCUACAGUCCGACGAUCUGGAGAGAUGGAAAAUCAGCUCUCAUAACUAAGUUAAUUUAGUAUAAAAAUAGAAUUGAUAGUGAGGGUAUAAAGUGUAACCAUCAGUUAAACCUCUCCUGUCAUUCCUGGCUUCCUUGCCAACAGAGGAUUGAGCAUCA
B21: chr11:74254050:74254151:+|3pUTR|ENSG00000214517|unk|total|mutant (ssRNA)
RNA: GGGAGUUCUACAGUCCGACGAUCUUGGAAGACCCAGAGAGGCCAAGAUCCCAUCCUCCGCCACCGCGAGCGGUGGUGGUGGACCGCAUCACAAGAAACGAGCCUGAAAAUCAGGUCCAGCCGGUCCAAGCACAUGGCCUCCCACAACAGAGGAUUGAGCAUCA
B22: chr10:59791032:59791133:-|3pUTR|ENSG00000108091|msi1|FALSE|unique (ssRNA)
RNA: GGGAGUUCUACAGUCCGACGAUCUAAUCAUAAUACAGUUCUCAGAUGCAGGGAAGAAGUUUGGCAUUUAAUCAUUGAGGCUUUAGGUUUUUGAUGUGAUCAGACUGGGCCAUGUCAAACCCGGAAUUUUCACCAACAGUUCACCAACAGAGGAUUGAGCAUCA

In this experiment the target is T1, UNK ZnF1-6 (called full-length) (human, UniProt Q9C0B0 30-357).
T1 sequence: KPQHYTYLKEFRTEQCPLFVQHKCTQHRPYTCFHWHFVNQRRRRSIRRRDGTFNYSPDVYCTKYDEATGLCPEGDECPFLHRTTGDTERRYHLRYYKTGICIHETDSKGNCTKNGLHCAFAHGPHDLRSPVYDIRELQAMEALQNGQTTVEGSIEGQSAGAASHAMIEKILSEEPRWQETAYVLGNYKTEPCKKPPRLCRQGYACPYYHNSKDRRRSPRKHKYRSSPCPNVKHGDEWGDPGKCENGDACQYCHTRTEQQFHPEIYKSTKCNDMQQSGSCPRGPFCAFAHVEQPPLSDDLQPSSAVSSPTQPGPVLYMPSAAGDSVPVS
In words: nsRBNS (natural sequence RNA bind-n-seq); RBNS binding buffer (assumed for nsRBNS): 25 mM Tris pH 7.5, 150 mM KCl, 3 mM MgCl2, 0.01% Triton X-100, 500 ug/ml BSA, 20 U/ml SUPERase-In, 4 C; UNK is unkempt and MSI1 is Musashi-1; names of the RNAs are library labels; protein concentration not given here; high values mean tight binding.
As to B1, the binding signal was 0.745 enrichment R.
As to B2, the binding signal turned out to be 0.354 enrichment R.
With B3, the binding signal was found to be 1.77 enrichment R.
Then B4, with 0.499 enrichment R; and B5, with 1.08 enrichment R.
The same measure for B6: 0.443 enrichment R; for B7: 0.665 enrichment R.
Turning to B8, the binding signal is 1.16 enrichment R.
B9 showed a binding signal of 0.376 enrichment R.
Regarding B10, the binding signal was 0.663 enrichment R.
Then B11, with 0.246 enrichment R; and B12, with 0.586 enrichment R.
Then B13, with 0.575 enrichment R; and B14, with 0.259 enrichment R; and B15, with 0.645 enrichment R.
Regarding B16, the binding signal was 1.54 enrichment R.
With B17, the binding signal is 0.757 enrichment R.
B18: the binding signal stood at 0.969 enrichment R.
B19 displayed a binding signal of 0.523 enrichment R.
Molecule B20 came in with a binding signal of 0.888 enrichment R.
The molecule B21 had a binding signal of 0.402 enrichment R.
Then B22, with 0.681 enrichment R.

The values above are taken from PMC12136788.
